Some of the results follow.
The compounds below were run on T1, C. trachomatis L2/434/Bu expressing GFP (CTL2-GFP). Details: total inclusion area; 28.5 h, 10 µM; inhibitor.
T1 construct: L2/434/Bu GFP intracellular growth in HeLa cells
Set-up: species or system HeLa; C. trachomatis total inclusion area by high-content imaging, normalised to DMSO
How it was run: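 High-content images of fixed, Hoechst-stained infected cultures supply inclusion area and count (growth) plus nuclei number (viability), complementing bulk GFP/resorufin fluorescence. MIC determination is unchanged from the primary assay.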

Row | SMILES | % of control remaining
1 | Cn1c(C(=O)NCCN2CCOCC2)cc2oc(-c3ccccc3)nc2c1=O [CBK056726T] | 130.336
2 | CC(NC(=O)CC(C)n1cccn1)c1cc2cc(Cl)ccc2o1 (centres unmarked) [CBK281432] | 114.253
3 | CN(CC1CCCC1)c1nccc(N2CCN[C@H]3CS(=O)(=O)C[C@H]32)n1 [CBK307060] | 106.816
4 | Cc1nn(C)cc1C(C)NC(=O)C1(c2ccccc2F)CCOCC1 (centres unmarked) [CBK281594] | 96.2742
5 | CCC(=O)N1CCC(c2nc(C3CCCC3)no2)C1 (centres unmarked) [CBK285458] | 71.9223
6 | COC(=O)c1sccc1-c1ccc(C2C3=C(CCCC3=O)NC3=C2C(=O)CCC3)o1 [CBK005748] | 95.2418
7 | COc1c(Cl)cc(Cl)cc1CNCCCN1CCOCC1 [CBK278165C] | 80.123
8 | CCNc1nccnc1-c1ccncc1 [CBK088586] | 104.407
9 | Cc1ccn(CCNC(=O)Cn2c3c(c4ccccc42)CCC3)n1 [CBK282708] | 124.541
10 | CC(C)(C)C1=CC2=NC3(CCC3)C3C[C@](O)(Cc4ccccc4)[C@@H](O)[C@@H]3N2O1 (some centres unmarked) [CBK303261] | 83.2992
11 | O=C(Nc1cc(Oc2cccnc2)cc([N+](=O)[O-])c1)c1cc2nc(-c3ccccc3)cc(-c3ccccc3)n2n1 [CBK262554] | 83.4528
12 | COc1ccc([N+](=O)[O-])cc1N(CC(=O)Nc1cccc2ccccc12)S(C)(=O)=O [CBK268197] | 68.6765
13 | COc1cc(/C=C/C(=O)O)cc(S(=O)(=O)N2CCc3ccccc3C2)c1OC [CBK264406] | 110.706
14 | N#Cc1ccc(-c2csc(NC(=O)c3ccc(Cl)s3)n2)cc1 [CBK287321] | 79.1229
15 | Cc1nc2ccc(C(=O)N3CCN(C)CC3)cn2c1N(C)C(=O)CCc1ccccc1 [CBK146786] | 112.029
16 | OC1CC(c2cc(F)ccc2F)N(CCc2ccncc2)C1 (centres unmarked) [CBK305106] | 94.3964
17 | CC(C)(C)OC(=O)NCc1ccc(CNCc2cccc(Cl)c2)cc1 [CBK056704] | 56.7362
18 | Cc1oc(CC(C)C)c(CN2CCCCC2)c1C(=O)O [CBK265448C] | 87.752
19 | Cc1cc(CN2CCCN(S(=O)(=O)c3ccc(C(F)(F)F)cc3Cl)CC2)cc(C)c1O [CBK063102] | 91.5139
20 | COc1ccc(C)cc1C1(CNC(=O)C2CC(O)CN2)CCOCC1 (centres unmarked) [CBK304162] | 110.479
21 | O=C(O)c1ccccc1-c1ccccc1C(=O)Nc1cccc(-c2nc3ccccc3o2)c1 [CBK262767] | 106.164
22 | Cc1nnc(NC(=O)Cc2ccc(F)cc2)s1 [CBK287360] | 73.6357
23 | O=C(Nc1ccccc1-n1cccc1)C1Cc2c([nH]c3ccccc23)C2(CCN(Cc3ccccc3)C2)N1 (centres unmarked) [CBK059395] | 101.556
24 | CCN(Cc1ccccn1)C(=O)NC(C)c1cccc(NC(C)=O)c1 (centres unmarked) [CBK305380] | 70.873
25 | CC(C)(C)NC(=O)C[C@@H]1CCNC[C@@H]1Cc1cc(-c2ccccc2)on1 [CBK289145] | 101.213

Row | SMILES | % of control remaining
26 | Cc1c(Cl)c([N+](=O)[O-])nn1CCCC(=O)Nc1sc2c(c1C#N)CCC(C(C)(C)C)C2 (centres unmarked) [CBK269111] | 101.532
27 | Cc1csc(C(C)NC(=O)NC2CCCN(c3ccn(C)n3)C2=O)n1 (centres unmarked) [CBK304426] | 45.6124
28 | Nc1nonc1-n1nncc1CN1CCCCC1 [CBK307045] | 73.0113
29 | O=C(Cn1cccc(C(=O)Nc2cc(F)ccc2N2CCCC2)c1=O)NC1CCCCC1 [CBK286008] | 109.052
30 | Cc1cc(C)n(C(=O)c2ccc([N+](=O)[O-])cc2N)n1 [CBK266491] | 106.935
31 | Cc1ccc(NC(=S)NC(=O)Cc2ccccc2)c(O)c1 [CBK264337] | 106.225
32 | O=C1COc2ccccc2C/C=C/CC2(CCCN(C(=O)CCN3CCCC3)C2)CN1 (centres unmarked) [CBK292136] | 102.737
33 | Oc1ccccc1-c1cc(-c2ccccc2)c2c(ccc3ncccc32)n1 [CBK261276] | 96.7571
34 | Cc1nc(COc2ccc(C(=O)Nc3ccc(C(=O)O)cc3C)cc2)cs1 [CBK295360] | 101.351
35 | CCn1cc(-c2cncn2CCCOc2cccc(C)c2)cn1 [CBK281760] | 136.939
36 | CN(CCN1CCCCC1)C(=O)Cn1cnc2ccccc21 [CBK281515] | 111.965
37 | O=C(O)C1(NS(=O)(=O)c2ccc(F)c(Cl)c2)CCCCC1 [CBK267276] | 103.875
38 | CNC(=O)c1cc(-c2cccc(Cl)c2)oc1CC(=O)c1ccc(CN2CCCC2)cc1 [CBK047558] | 98.6333
39 | O=S(=O)(NCCCN1CCOCC1)c1cc(C(F)(F)F)cc(C(F)(F)F)c1 [CBK005796] | 123.238
40 | O=C(NC(NCc1ccc2c(c1)OCO2)(C(F)(F)F)C(F)(F)F)c1cccnc1 [CBK074397] | 91.0608
41 | O=C(O)c1ccc(N2C(=O)CC(N3CCN(CCO)CC3)C2=O)cc1 (centres unmarked) [CBK271638] | 92.8797
42 | N#CCCn1cc(C(=O)N2CCCCC2)c(-c2ccc(F)cc2)n1 [CBK306191] | 32.1259
43 | O=C(c1ccsc1NS(=O)(=O)/C=C/c1ccccc1)N1CCOCC1 [CBK042285] | 86.0751
44 | Cc1cc(C(C)(C)C)cc(C)c1COC(=O)c1ccncc1 [CBK296995] | 53.4003
45 | O=[N+]([O-])c1cccc(S(=O)(=O)NCCOc2cccc3cccnc23)c1 [CBK268489] | 113.635
46 | Cc1nccn1CCC(=O)Nc1ccccc1Oc1ccc(F)cc1 [CBK281473] | 104.693
47 | NC(=S)Nc1nc(-c2ccc(Br)cc2)cs1 [CBK023259] | 64.0072
48 | Cc1cc(NC(=O)Cc2cn3ccsc3n2)ccc1N1CCCC1 [CBK306080] | 86.8398
49 | O=C(CN1CCN(Cc2ccc3c(c2)OCO3)CC1)Nc1ccc(Oc2ccccc2)cc1 [CBK265864] | 68.6461
50 | O=C1N[C@@H](Cc2ccc(F)cc2)C(=O)N2CCN(C(=O)N3CCOCC3)C[C@H]12 [CBK289603] | 128.014

Source: article PMC12040169 (PLOS Biology, 2025)
